Data reported in PubChem BioAssay (Tox21).
Values joined by “and” are separate entries in the source; they are usually repeats but may differ in a detail not shown here. Identical values can stand only once. A structure can be active in one record and inactive in another. Active and inactive are the calls of the source. Unless noted, calls come from the whole dose curve; as a rule, active = well fitted curve in the direction sought with a large enough effect in the repeat runs; inconclusive = weak or mixed curves; inactive = no such curve, though single readings can be large; an effect the other way counts as inactive or inconclusive.

Columns and labels:
[1] = qHTS assay for identifying genotoxic compounds that show differential cytotoxicity against isogenic chicken DT40 cell lines with known DNA damage response pathways - wild type cell line (AID 743012); conditions: DT40 wild type chicken cells viability, CellTiter-Glo, 40 h; activity change, negative = cytotoxicity: at 68.4 µM (top of the series) unless noted; note: nearly all actives have a fitted effect of over 60% in size; for activity change, negative = cytotoxicity: % is set by controls: 0 for no effect and ±100 for the full control effect
In short: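 300 wt DT40 cells/well; cpd (DMSO) pintool-transferred after ~0.5 h at 37 C/5% CO2; 40 h incubation; CellTiter-Glo added, 30 min RT; luminescence read.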

[2] = qHTS assay for identifying genotoxic compounds that show differential cytotoxicity against isogenic chicken DT40 cell lines with known DNA damage response pathways - Rev3 mutant cell line (AID 743014); conditions: chicken DT40 Rev3-/- viability, CellTiter-Glo, 40 h; activity, negative = cytotoxicity: at 68.4 µM (top of the series); note: nearly all actives have a fitted effect of over 55% in size
[3] = qHTS assay to identify small molecule antagonists of the androgen receptor (AR) signaling pathway - cell viability counter screen (AID 743033; note: nearly all actives have a fitted effect of over 45% in size; for activity change, negative = cytotoxicity: % is set by controls: 0 for no effect and ±100 for the full control effect); conditions: AR-bla HEK293 viability, CellTiter-Glo luminescence, 16 h; activity change, negative = cytotoxicity: at 58.5 µM (top of the series) unless noted
[4] = qHTS assay to identify small molecule antagonists of the thyroid receptor (TR) signaling pathway - cell viability counter screen (AID 743064); conditions: GH3.TRE-Luc viability, CellTiter-Fluor, 24 h; activity change, negative = cytotoxic: at 70.3 µM (top of the series) unless noted; note: nearly all actives have a fitted effect of over 50% in size; for activity change, negative = cytotoxic: % is set by controls: 0 for no effect and ±100 for the full control effect
In short: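 Counter screen for cytotoxicity: compound plus T3 (1 nM final) on GH3.TRE-Luc cells, 23.5 h at 37 °C, then fluorescence viability readout with CellTiter-Fluor.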

[5] = qHTS assay to identify small molecule antagonists of the thyroid receptor (TR) signaling pathway (AID 743065); note: nearly all actives have a fitted effect of over 55% in size
In short: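 Antagonism measured as loss of luciferase signal in GH3 cells stably carrying a TRE-luciferase reporter, co-treated with compound and T3 (1 nM final) for 23.5 h at 37 C. Viability was read in the same well by CellTiter-Fluor.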

[6] = target: Estrogen receptor (Homo sapiens) (UniProt P03372); assay: qHTS assay to identify small molecule antagonists of the estrogen receptor alpha (ER-alpha) signaling pathway (AID 743069; active = well fitted curve in the direction sought with a large enough effect in the signal ratio in the repeat runs, not every such curve was filed as active; inconclusive = weak or mixed curves, or effect the other way; inactive = no such curve, though single readings can be large or run the other way; the % refers to the signal ratio; for activity, negative = inhibition: % is set by controls: 0 for no effect and ±100 for the full control effect); conditions: HEK293 ER-alpha-UAS-bla, beta-lactamase ratio, antagonist mode; activity, negative = inhibition: at 69.4 µM (top of the series) unless noted
Chain of UniProt P03372 (P03372 whole entry, looked up): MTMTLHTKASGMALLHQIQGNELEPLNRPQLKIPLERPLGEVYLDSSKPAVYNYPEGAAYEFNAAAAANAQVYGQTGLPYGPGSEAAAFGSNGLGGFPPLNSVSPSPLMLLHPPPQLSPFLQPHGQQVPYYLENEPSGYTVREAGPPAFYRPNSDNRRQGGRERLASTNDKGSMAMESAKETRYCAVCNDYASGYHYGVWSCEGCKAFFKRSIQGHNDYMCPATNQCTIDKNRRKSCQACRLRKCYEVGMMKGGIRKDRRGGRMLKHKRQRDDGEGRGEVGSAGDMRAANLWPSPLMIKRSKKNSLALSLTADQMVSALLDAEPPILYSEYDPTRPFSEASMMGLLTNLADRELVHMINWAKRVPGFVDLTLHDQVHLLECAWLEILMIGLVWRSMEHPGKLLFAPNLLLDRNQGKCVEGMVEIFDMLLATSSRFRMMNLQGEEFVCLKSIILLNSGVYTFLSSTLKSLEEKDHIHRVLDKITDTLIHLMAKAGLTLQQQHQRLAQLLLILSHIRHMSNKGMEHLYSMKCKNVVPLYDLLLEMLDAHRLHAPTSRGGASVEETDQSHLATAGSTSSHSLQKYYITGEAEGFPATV
In short: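 Antagonist mode: compounds in DMSO were co-added with 17beta-estradiol to ER-alpha-bla HEK293 cells (2% charcoal-stripped serum) and left 18 h at 37C. Reporter inhibition was measured as FRET fluorescence after 2 h LiveBLAzer substrate at room temperature.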

[7] = qHTS assay to identify small molecule antagonists of the estrogen receptor alpha (ER-alpha) signaling pathway - cell viability counter screen (AID 743074; calls by dose curve;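 note: HEK293 cells carrying ER-alpha-UAS-bla reporter stimulated with 17beta-estradiol; nearly all actives have a fitted effect of over 45% in size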)
[8] = target: Androgen receptor (Homo sapiens) (UniProt P10275); assay: qHTS assay to identify small molecule antagonists of the androgen receptor (AR) signaling pathway (AID 743035; active = well fitted inhibition curve with a large enough effect in the signal ratio in the repeat runs, not every such curve was filed as active; inconclusive = weak or mixed curves, or effect the other way; inactive = no such curve, though single readings can be large or run the other way; the % refers to the signal ratio); conditions: HEK293 AR-UAS-bla, R1881-stimulated, beta-lactamase FRET, 16 h; activity change, negative = inhibition: at 58.5 µM (top of the series) unless noted
Chain of UniProt P10275 (P10275 whole entry, looked up): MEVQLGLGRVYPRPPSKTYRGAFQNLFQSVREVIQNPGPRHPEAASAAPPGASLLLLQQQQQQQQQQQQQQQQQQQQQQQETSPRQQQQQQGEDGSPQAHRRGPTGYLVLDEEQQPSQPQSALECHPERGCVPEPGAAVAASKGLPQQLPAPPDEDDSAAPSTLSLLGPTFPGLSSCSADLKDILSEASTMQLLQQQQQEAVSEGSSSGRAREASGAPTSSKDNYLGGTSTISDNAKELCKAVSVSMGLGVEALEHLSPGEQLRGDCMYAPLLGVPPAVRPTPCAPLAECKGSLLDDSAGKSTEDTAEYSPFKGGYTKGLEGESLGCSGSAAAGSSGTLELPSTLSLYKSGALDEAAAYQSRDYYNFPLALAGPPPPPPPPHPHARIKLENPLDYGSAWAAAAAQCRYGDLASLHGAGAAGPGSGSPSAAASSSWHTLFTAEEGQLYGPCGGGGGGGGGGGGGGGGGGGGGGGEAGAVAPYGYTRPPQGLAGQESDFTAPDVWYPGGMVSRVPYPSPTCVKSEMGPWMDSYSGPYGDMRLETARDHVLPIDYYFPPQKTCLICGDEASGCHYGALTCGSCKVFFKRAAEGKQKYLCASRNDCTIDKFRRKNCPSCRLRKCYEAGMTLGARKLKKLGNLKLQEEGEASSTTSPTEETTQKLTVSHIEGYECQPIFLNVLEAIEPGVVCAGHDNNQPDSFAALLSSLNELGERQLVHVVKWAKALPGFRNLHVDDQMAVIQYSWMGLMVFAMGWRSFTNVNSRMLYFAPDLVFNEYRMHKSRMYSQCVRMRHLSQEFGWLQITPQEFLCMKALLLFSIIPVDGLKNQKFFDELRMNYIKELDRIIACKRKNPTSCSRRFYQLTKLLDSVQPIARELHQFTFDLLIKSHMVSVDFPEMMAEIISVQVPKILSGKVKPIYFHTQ
In short: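 In this cell-based reporter screen, compounds were tested in concentration series against R1881-activated HEK293 cells expressing beta-lactamase under UAS control; after 16 h at 37C, FRET substrate was added and fluorescence read 2 h later.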

[9] = target: Androgen receptor (Homo sapiens) (UniProt P10275); assay: qHTS assay to identify small molecule agonists of the androgen receptor (AR) signaling pathway (AID 743036; active = well fitted activation curve with a large enough effect in the signal ratio in the repeat runs, with a control signal flat, not every such curve was filed as active; inconclusive = weak or mixed curves, or effect the other way; inactive = no such curve, though single readings can be large or run the other way; the % refers to the signal ratio); conditions: HEK293 AR-UAS-bla GripTite, beta-lactamase FRET ratio, 16 h; activation: at 62.4 µM (top of the series) unless noted
In short: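 In this Tox21 qHTS, 2,000 HEK293 AR-bla cells per well were incubated with compounds for 16 h at 37C and 5% CO2. Fluorescence intensity was recorded 2 h after adding LiveBLAzer B/G FRET substrate at room temperature.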

[10] = tested on: thyroid hormone receptor (rat, GH3 cells); assay: qHTS assay to identify small molecule agonists of the thyroid receptor (TR) signaling pathway (AID 743066; calls by dose curve); conditions: GH3.TRE-Luc cells, TR agonist luciferase, 24 h; activation: at 83.9 µM (top of the series) unless noted
[11] = target: Estrogen receptor (Homo sapiens) (UniProt P03372); assay: qHTS assay to identify small molecule agonists of the estrogen receptor alpha (ER-alpha) signaling pathway (AID 743075; calls by dose curve;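 note: HEK293 GripTite cells with ER-alpha and UAS-driven beta-lactamase reporter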)
Aromatase (Homo sapiens) = Aromatase (Homo sapiens) (UniProt P11511); assay: qHTS assay to identify aromatase inhibitors (AID 743083); conditions: MCF-7 aro ERE, testosterone-driven ERE luciferase, 24 h; activity, negative = inhibition: at 70.3 µM (top of the series); note: nearly all actives have a fitted effect of over 55% in size
Chain of UniProt P11511 (P11511 whole entry, looked up): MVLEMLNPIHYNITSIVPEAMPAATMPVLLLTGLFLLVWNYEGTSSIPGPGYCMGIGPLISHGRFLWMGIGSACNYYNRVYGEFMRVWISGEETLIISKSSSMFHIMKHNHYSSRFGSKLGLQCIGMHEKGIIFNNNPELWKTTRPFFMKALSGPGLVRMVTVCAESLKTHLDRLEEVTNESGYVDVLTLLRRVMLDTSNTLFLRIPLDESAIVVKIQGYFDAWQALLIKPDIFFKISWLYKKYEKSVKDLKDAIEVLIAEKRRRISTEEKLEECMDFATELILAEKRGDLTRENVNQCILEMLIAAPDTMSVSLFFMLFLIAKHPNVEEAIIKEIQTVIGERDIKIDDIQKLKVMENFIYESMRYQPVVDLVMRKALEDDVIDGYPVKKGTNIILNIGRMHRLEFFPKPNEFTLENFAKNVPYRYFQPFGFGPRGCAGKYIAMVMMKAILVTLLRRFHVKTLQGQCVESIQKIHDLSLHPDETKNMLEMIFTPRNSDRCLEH

[12] = qHTS assay to identify small molecule antagonists of the estrogen receptor alpha (ER-alpha) signaling pathway using the BG1 cell line (AID 743080; calls by dose curve;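 note: BG1 cells stimulated with 17beta-estradiol alongside compound; nearly all actives have a fitted effect of over 25% in size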); conditions: BG1Luc4E2 ERE-luciferase antagonist mode, luminescence; activity change, negative = inhibition: at 70.3 µM (top of the series) unless noted
In short: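 Luminescence from a 4×ERE-luciferase reporter in BG1-Luc-4E2 cells served as read-out. Cells, pre-cultured 5 days in stripped-serum phenol-red-free medium, were exposed to compound with 17beta-estradiol co-stimulation for 21.5 h at 37 C.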

[13] = qHTS assay to identify small molecule antagonists of the estrogen receptor alpha (ER-alpha) signaling pathway using the BG1 cell line - cell viability counter screen (AID 743081); conditions: BG1Luc4E2 viability, CellTiter-Fluor, 22 h; activity change, negative = cytotoxicity: at 70.3 µM (top of the series) unless noted;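 note: compound given together with 17beta-estradiol as the ER stimulus; nearly all actives have a fitted effect of over 45% in size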
[14] = qHTS assay to identify small molecule antagonists of the androgen receptor (AR) signaling pathway using the MDA cell line - cell viability counter screen (AID 743041; note: nearly all actives have a fitted effect of over 45% in size); conditions: MDA-kb2 viability, CellTiter-Fluor, 16 h, cells co-treated with R1881 androgen agonist; viability change, negative = cytotoxic: at 70.3 µM (top of the series) unless noted
In short: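 Viability read by CellTiter-Fluor fluorescence in the same wells as the antagonist screen, added after 15.5 h of a 16 h, 37C exposure. Human breast carcinoma MDA-kb2 AR-luc cells, compounds co-dosed with agonist R1881.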

[15] = target: Androgen receptor (Homo sapiens) (UniProt P10275); assay: qHTS assay to identify small molecule antagonists of the androgen receptor (AR) signaling pathway using the MDA cell line (AID 743042; note: nearly all actives have a fitted effect of over 55% in size)
In short: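 Antagonist mode: compounds plus R1881 agonist added to MDA-kb2 AR-luc cells, incubated 16 h at 37C. Luciferase reporter luminescence quantified, with multiplexed CellTiter-Fluor readout for cell viability.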
Potency is the fitted concentration of half-maximal effect; tags give direction and shape of the fitted curve or compound fluorescence and quenching.

## C=CC(C)(CCC=C(C)C)OC(=O)c1ccccc1 (centres undefined)
[1]
  Potency: inactive
[2]
  Potency: active: 24.3 µM
[3]
  Potency: inactive
[4]
  Potency: inconclusive: 77 µM [cytotoxic, single point]
[5]
  Potency: inconclusive: 77 µM [inhibitor, single point]

## CCO/C=C1\N=C(c2ccccc2)OC1=O
[1]
  Potency: inconclusive: 9.65 µM [rising, partial curve, poor fit]
[2]
  Potency: inconclusive: 68.3 µM [cytotoxic, single point]
[5]
  Potency: inconclusive: 68.3 µM [inhibitor, single point]

## CCO/C([O-])=N/c1c[n+](N2CCOCC2)no1
[1]
  Potency: inactive
[2]
  Potency: inconclusive: 14.3 µM [rising, partial curve, poor fit]
[4]
  Potency: inactive
[6]
  Potency: inactive
[7]
  Potency: inactive

## CCN(CC)c1cccc(O)c1
[1]
  Potency: inactive
[2]
  Potency: inconclusive: 70 µM [cytotoxic, single point]
[8]
  activity change, negative = inhibition: inconclusive: 3.97% [at 78.9 µM]
[9]
  Potency: inconclusive: 56.1 µM [fluorescent, partial curve, poor fit]
[10]
  Potency: inactive
[6]
  Potency: inconclusive: 25 µM [activator, partial curve]
[11]
  Potency: inconclusive: 28.1 µM [fluorescent, partial curve, poor fit]

## Cc1cc(C(C)(C)C)c(O)c(C)c1Cn1c(=O)n(Cc2c(C)cc(C(C)(C)C)c(O)c2C)c(=O)n(Cc2c(C)cc(C(C)(C)C)c(O)c2C)c1=O
[1]
  Potency: inconclusive: 27.3 µM [rising, single point]
[2]
  Potency: inactive
[5]
  Potency: inconclusive: 21.7 µM [inhibitor, single point]
[6]
  Potency: active: 17.4 µM [inconclusive]
Aromatase (Homo sapiens)
  Potency: inconclusive: 19.3 µM [inhibitor, partial curve]

## COC(=O)[C@H]1[C@H]2C[C@@H]3c4[nH]c5cc(OC)ccc5c4CCN3C[C@H]2C[C@@H](OC(=O)c2cc(OC)c(OC)c(OC)c2)[C@@H]1OC
[1]
  Potency: inconclusive: 9.67 µM [rising, partial curve]
[2]
  Potency: inconclusive: 27.3 µM [cytotoxic, full curve]
[3]
  Potency: active: 21.8 µM and inconclusive: 22.5 µM [cytotoxic, partial curve]
[4]
  Potency: inconclusive: 28.1 µM [cytotoxic, partial curve]
[10]
  Potency: inconclusive: 38.5 µM [inhibitor, partial curve, poor fit] and inconclusive: 44.5 µM [inhibitor, partial curve, poor fit]
  activation: inconclusive: -8.51% [phenotype inactive]
[7]
  Potency: inconclusive: 48.9 µM [cytotoxic, partial curve, poor fit]
Aromatase (Homo sapiens)
  Potency: active: 16.8 µM and active: 27.3 µM and active: 56 µM

## Cc1nc2n(c(=O)c1CCN1CCC(c3noc4cc(F)ccc34)CC1)CCCC2
[1]
  Potency: active: 9.44 µM
[2]
  Potency: inconclusive: 10.6 µM [cytotoxic]
[4]
  Potency: inconclusive: 37.6 µM [rising, single point]
[10]
  Potency: inactive
[12]
  Potency: inconclusive: 11.9 µM [falling, partial curve, poor fit]
[13]
  Potency: inconclusive: 26.6 µM [cytotoxic, partial curve]

## CC(C)=CCC/C(C)=C/CO
[1]
  Potency: inactive and inconclusive: 78.1 µM [cytotoxic, single point]
[2]
  Potency: inconclusive: 31.1 µM [cytotoxic, partial curve]
[4]
  Potency: inconclusive: 69.6 µM [rising, single point]
[7]
  Potency: inconclusive: 3.79 µM [rising, full curve, poor fit]

## CN(C)c1ccc(C(c2ccccc2)c2ccc(N(C)C)cc2)cc1
[1]
  Potency: active: 6.86 µM
[2]
  Potency: active: 6.86 µM
[8]
  Potency: inconclusive: 49 µM
[9]
  Potency: inactive
[5]
  Potency: active: 24.3 µM

## CCCC1CCOC(C)S1 (centres undefined)
[1]
  Potency: inactive
[2]
  Potency: inconclusive: 77 µM [cytotoxic, single point]
[9]
  Potency: inactive
[14]
  Potency: inactive
[10]
  Potency: inactive

## Nc1nc(-c2ccccc2)c(Br)c(=O)[nH]1
[1]
  Potency: inactive
[2]
  Potency: inconclusive: 13.3 µM [rising, partial curve, poor fit]
[8]
  Potency: inconclusive: 9.52 µM [rising, full curve]
[9]
  activation: inconclusive: -14.8%
[15]
  Potency: inconclusive: 13.3 µM [inhibitor, partial curve, poor fit]
Aromatase (Homo sapiens)
  Potency: inactive

## CCCC1O[C@@H]2C[C@H]3[C@@H]4CCC5=CC(=O)C=C[C@]5(C)[C@H]4[C@@H](O)C[C@]3(C)[C@]2(C(=O)CO)O1 (some centres undefined)
[1]
  Potency: inconclusive: 77 µM [cytotoxic, single point] and inconclusive: 61.1 µM [cytotoxic]
[2]
  Potency: inconclusive: 68.7 µM [cytotoxic]
[3]
  Potency: inconclusive: 55 µM [cytotoxic, partial curve, poor fit] and inconclusive: 61.7 µM [cytotoxic, partial curve, poor fit]
[14]
  Potency: inconclusive: 29.8 µM [rising, partial curve, poor fit]
[4]
  Potency: inactive
